In ChEMBL document CHEMBL4888484, “Replenishing the malaria drug discovery pipeline: Screening and hit evaluation of the MMV Hit Generation Library 1 (HGL1) against asexual blood stage Plasmodium falciparum ,using a nano luciferase reporter read-out” (2022):
Out of some 150,000 compounds screened, about 540 (0.36%) showed an effect of 50% or more. The list shows a part of the results.

tested on: Plasmodium falciparum; assay: Primary screen in NF54 nanoGlo assay, in single point, at 2uM, 72h; a lower Z score goes with more inhibition; assay type: functional, Erythrocyte; settings: timepoint 72 hour

Question: For `c1ncn(C[C@H]2CCCN(Cc3ccc4c(c3)OCCO4)C2)n1`, which “% Inhibition” value is on record?
Answer: The value was -5%.

Question: What about the Z score of the same compound?
Answer: Its Z score is 0.73.

Question: How did the “% Inhibition” value turn out when `CC(C)CNC(=O)C(=O)NCCc1ccc(F)cc1` was run?
Answer: The value was -4%.

Question: And the Z score?
Answer: Its Z score is 0.54.

Question: For `Cc1cnn(C)c1NC(=O)c1cccc(CN2CC[C@@H]3CCCC[C@H]3C2)c1`, which “% Inhibition” value is on record?
Answer: Its value is -7%.

Question: And the Z score?
Answer: The Z score was 1.36.

Question: How did the “% Inhibition” value turn out when `COc1cccc2cc(C(=O)NC3CCN(c4ncnc5c4CCCC5)CC3)oc12` was run?
Answer: The value was -13%.

Question: And the Z score?
Answer: Its Z score is 1.62.

Question: What does the source list for `NC(=O)N1CCC[C@H]1c1nc(-c2cccc(Br)c2)no1`?
Answer: % Inhibition: 10%; Z score: -1.27

Question: Which results are given for `COc1ccc(CN(Cc2ccc(C(O)(c3ccc(OC)cc3)c3ccc(OC)cc3)o2)C[C@H]2CCCO2)cc1`?
Answer: % Inhibition: -7%; Z score: 0.9

Question: What does the source list for `CO[C@H]1COC[C@@H]1n1cnc(-c2ccccc2)c1-c1ccc2occc2c1`?
Answer: % Inhibition: 0%; Z score: -0.02

Question: Which “% Inhibition” value does the source give for `C1CCN(CCCC2CCN(c3nnc(C4CC4)s3)CC2)C1` here?
Answer: Its value is -9%.

Question: And the Z score?
Answer: Its Z score is 0.92.

Question: With `CC[C@H](C)NC(=O)C(=O)NCc1ccc(C)cc1` as the compound, how does the “% Inhibition” value read?
Answer: The value was -16%.

Question: What about the Z score of the same compound?
Answer: Its Z score is 2.06.

Question: How did the “% Inhibition” value turn out when `C=CCn1c(C)c(CC(=O)N2CCOCC2)c(=O)n2nc(-c3ccc(C)cc3)nc12` was run?
Answer: The value was -13%.

Question: And the Z score?
Answer: Its Z score is 1.3.

Question: With `CC[C@H](C)NS(=O)(=O)c1ccc(-c2[nH]nc(C)c2C)o1` as the compound, how does the “% Inhibition” value read?
Answer: The value was -10%.

Question: What about the Z score of the same compound?
Answer: The Z score was 1.53.

Question: Which “% Inhibition” value does the source give for `Cc1csc(NC(=O)NCCN2C(=O)CNC2=O)n1` here?
Answer: The value was 2%.

Question: And the Z score?
Answer: The Z score was -0.33.

Question: For `CC(C)N(C(=O)CN1CC[C@H]1c1ccc(Cl)cc1)C(C)C`, which “% Inhibition” value is on record?
Answer: Its value is -4%.

Question: And the Z score?
Answer: Its Z score is 0.72.

Question: What does the source list for `CCOC(=O)c1ccc(NC(=O)CN2CCCn3nc(C)cc32)cc1`?
Answer: % Inhibition: -8%; Z score: 1.3

Question: Which “% Inhibition” value does the source give for `CCCn1c(C)cnc1C1CN(C(=O)c2ccoc2)C1` here?
Answer: The value was -8%.

Question: What about the Z score of the same compound?
Answer: Its Z score is 1.27.

Question: Which results are given for `O=C(Nc1ccc(F)cc1F)c1cccc(CN2[C@@H]3CC[C@H]2C[C@@H](O)C3)c1`?
Answer: % Inhibition: -6%; Z score: 1.05

Question: Which “% Inhibition” value does the source give for `O=C(CN1Cc2c(cnn2-c2ccccc2)C1=O)N1CC[C@H](CO)C1` here?
Answer: Its value is -8%.

Question: What about the Z score of the same compound?
Answer: Its Z score is 0.91.

Question: Which “% Inhibition” value does the source give for `CCOc1cccc(CN2CCC(CC(=O)N3CCCC3)CC2)c1` here?
Answer: Its value is 4%.

Question: What about the Z score of the same compound?
Answer: The Z score was -0.72.

Question: With `Cc1cc(C(=O)N2CCOC3CCCCC32)c2ccccc2n1` (stereo unspecified) as the compound, how does the “% Inhibition” value read?
Answer: Its value is -11%.

Question: What about the Z score of the same compound?
Answer: The Z score was 1.36.

Question: What does the source list for `CC[C@H](Nc1ccc2c(c1)OC1(CCCCC1)O2)C(=O)Nc1cc(C)on1`?
Answer: % Inhibition: -16%; Z score: 2.07

Question: Which “% Inhibition” value does the source give for `O=C(CC1CCCCC1)Nc1nnc([C@H]2CC(=O)N(c3ccc(OC(F)(F)F)cc3)C2)o1` here?
Answer: Its value is -5%.

Question: And the Z score?
Answer: The Z score was 0.75.

Question: Which results are given for `Cc1cc(C(=O)Nc2cccc(N3CCCC3=O)c2)on1`?
Answer: % Inhibition: -5%; Z score: 0.97

Question: For `Cn1nc(-c2ccncc2)cc1CNC(=O)c1ccc(Cl)s1`, which “% Inhibition” value is on record?
Answer: The value was -13%.

Question: What about the Z score of the same compound?
Answer: Its Z score is 2.11.

Question: `CN[C@@H](C)c1nc(-c2cccc3c2ccn3C)n[nH]1` was tested. Which “% Inhibition” value did it give?
Answer: The value was 1%.

Question: And the Z score?
Answer: Its Z score is -0.11.

Question: Which “% Inhibition” value does the source give for `Cc1nnc(NC(=O)N2CCN(c3ccc(-c4ccccc4)cc3)CC2)[nH]1` here?
Answer: The value was -7%.

Question: And the Z score?
Answer: The Z score was 0.94.

Question: `CC(C(=O)NCC1CCCO1)N(C)C(C)c1ccccc1` (stereo unspecified) was tested. Which “% Inhibition” value did it give?
Answer: Its value is -3%.

Question: What about the Z score of the same compound?
Answer: The Z score was 0.35.

Question: With `CC(C)(O)Cn1nc(CC(N)=O)nc1C1CC=CC1` as the compound, how does the “% Inhibition” value read?
Answer: Its value is -8%.

Question: What about the Z score of the same compound?
Answer: The Z score was 1.12.

Question: With `O=S(=O)(Nc1ccc(F)cc1)c1cccnc1Nc1ccccc1` as the compound, how does the “% Inhibition” value read?
Answer: Its value is -3%.

Question: And the Z score?
Answer: The Z score was 0.34.

Question: `CO[C@@H]1C[C@@H](c2ncn[nH]2)N(CC(=O)N2CCCc3ccccc32)C1` was tested. Which “% Inhibition” value did it give?
Answer: Its value is 7%.

Question: What about the Z score of the same compound?
Answer: Its Z score is -0.95.

Question: Which “% Inhibition” value does the source give for `COc1cccc(CN=C(N)N(C)C2CC2)c1OC1CCCC1` here?
Answer: Its value is -3%.

Question: And the Z score?
Answer: Its Z score is 0.5.

Question: Which results are given for `CN(Cc1cccnc1)c1ncccc1F`?
Answer: % Inhibition: 3%; Z score: -0.43

Question: Which results are given for `C[C@]1(O)CCN(c2cc(C(F)(F)F)ccn2)C[C@H]1O`?
Answer: % Inhibition: -2%; Z score: 0.3

Question: Which results are given for `CCCCc1nc(C)cc(NCCn2cnc3cn(C)nc3c2=O)n1`?
Answer: % Inhibition: -17%; Z score: 1.54

Question: What does the source list for `COc1cccc(-c2cn[nH]c2C2CCN(Cc3ncc[nH]3)CC2)c1`?
Answer: % Inhibition: -7%; Z score: 0.73

Question: How did the “% Inhibition” value turn out when `COCC(=O)Nc1ccnn1[C@@H](C)CC(C)C` was run?
Answer: The value was -2%.

Question: And the Z score?
Answer: The Z score was 0.34.

Question: What does the source list for `O=C(NC1CCN(Cc2ccccc2)CC1)c1ccn2c(-c3ccccc3Cl)nnc2c1`?
Answer: % Inhibition: -3%; Z score: 0.56

Question: For `COCCc1noc(COC2CCN(S(C)(=O)=O)CC2)n1`, which “% Inhibition” value is on record?
Answer: Its value is -11%.

Question: And the Z score?
Answer: Its Z score is 1.42.

Question: Which results are given for `NC(=O)c1ccc(NC(=O)N[C@H]2CCOc3c(F)cccc32)cn1`?
Answer: % Inhibition: 1%; Z score: -0.24

Question: Which results are given for `CCc1nccc(CN2CCN(c3ccc(F)c(Cl)c3)CC2)n1`?
Answer: % Inhibition: -7%; Z score: 1.17

Question: Which “% Inhibition” value does the source give for `CNC(=O)c1ncoc1-c1cccs1` here?
Answer: The value was -1%.

Question: And the Z score?
Answer: The Z score was 0.18.

Question: How did the “% Inhibition” value turn out when `Cc1ccc(C(=O)N2CC(OC(=O)Nc3cccc(F)c3)C2)n1C` was run?
Answer: Its value is 4%.

Question: And the Z score?
Answer: Its Z score is -0.49.

Question: With `Cc1nsc(C(=O)N2CCN(CC(F)(F)CO)CC2)n1` as the compound, how does the “% Inhibition” value read?
Answer: The value was -9%.

Question: What about the Z score of the same compound?
Answer: The Z score was 1.19.

Question: What does the source list for `O=C(OC1CCCC1)[C@H]1CC(=O)N(c2ccc3c(c2)CCC3)C1`?
Answer: % Inhibition: -2%; Z score: 0.18
